Drawing on patent publication US10906889B2, “Polycyclic inhibitors of cyclin-dependent kinase 7 (CDK7)” (Dana-Farber Cancer Institute, Inc., priority 2013, dated 2021), this text covers IC50 for six compounds.

Molecules are shown by their SMILES. A value given as a limit tells only on which side of the number the result lay.

As a reminder, the IC50 is the concentration that gives 50% inhibition. Lower therefore signals higher potency.

The target in the experiment is CDK7/Cyclin H/MAT1 trimeric complex (Homo sapiens, UniProt P50613). Briefly: Caliper/LabChip EZ Reader CDK7 inhibition assay.
Sequence of UniProt P50613 (P50613 whole entry): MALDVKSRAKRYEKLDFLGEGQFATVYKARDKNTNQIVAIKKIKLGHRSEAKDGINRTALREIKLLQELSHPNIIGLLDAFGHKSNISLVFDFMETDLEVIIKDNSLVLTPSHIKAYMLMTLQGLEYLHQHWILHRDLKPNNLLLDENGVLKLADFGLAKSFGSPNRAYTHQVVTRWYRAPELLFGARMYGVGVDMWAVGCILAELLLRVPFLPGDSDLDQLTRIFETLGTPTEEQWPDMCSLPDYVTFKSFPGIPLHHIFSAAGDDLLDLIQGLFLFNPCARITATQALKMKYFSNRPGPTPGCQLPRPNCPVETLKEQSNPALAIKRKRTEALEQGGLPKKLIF
Sequence of UniProt P50613 (P51946 whole entry partner): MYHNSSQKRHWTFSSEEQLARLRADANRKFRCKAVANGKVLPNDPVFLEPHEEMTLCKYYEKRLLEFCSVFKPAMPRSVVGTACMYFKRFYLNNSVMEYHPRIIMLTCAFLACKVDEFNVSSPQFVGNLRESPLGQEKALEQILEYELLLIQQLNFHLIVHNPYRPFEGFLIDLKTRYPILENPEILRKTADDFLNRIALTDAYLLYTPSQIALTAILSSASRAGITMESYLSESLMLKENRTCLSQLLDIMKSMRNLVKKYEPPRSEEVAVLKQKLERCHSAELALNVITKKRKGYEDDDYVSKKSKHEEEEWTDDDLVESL
Sequence of UniProt P50613 (P51948 whole entry partner): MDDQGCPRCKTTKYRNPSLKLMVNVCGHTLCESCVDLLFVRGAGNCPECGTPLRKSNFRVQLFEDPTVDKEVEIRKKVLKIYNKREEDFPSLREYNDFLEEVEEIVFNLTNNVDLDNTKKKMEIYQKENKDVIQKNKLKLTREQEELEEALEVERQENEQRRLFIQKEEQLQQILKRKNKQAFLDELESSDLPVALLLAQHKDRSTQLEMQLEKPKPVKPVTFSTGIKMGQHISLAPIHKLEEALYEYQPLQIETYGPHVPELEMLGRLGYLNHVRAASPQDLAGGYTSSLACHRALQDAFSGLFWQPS
As for `C=CC(=O)Nc1cccc(C(=O)N[C@H]2CC[C@H](Nc3ncc(Cl)c(-c4c[nH]c5ccccc45)n3)CC2)c1` [Compound 135, 3-acrylamido-N-((trans)-4-(5-chloro-4-(1H-indol-3-yl)pyrimidin-2-ylamino)cyclohexyl)benzamide], the IC50 lay in the range of 100 to 1000 nM.

In the case of `C=CC(=O)Nc1cccc(CO[C@H]2CC[C@H](Nc3ncc(Cl)c(-c4c[nH]c5ccccc45)n3)CC2)c1` [Compound 155, N-(3-((((1R,4R)-4-((5-chloro-4-(1H-indol-3-yl)pyrimidin-2-yl)amino)cyclohexyl)oxy)methyl)phenyl)acrylamide], the IC50 was > 1000 nM.

On to `C=CC(=O)Nc1ccc(C(=O)N[C@@]2(C)CCC[C@@H](Nc3ncc(Cl)c(-c4c[nH]c5ccccc45)n3)C2)cc1F` [Compound 156], for which the IC50 is > 1000 nM.

The compound `CN(C)C/C=C/C(=O)Nc1ccc(C(=O)N[C@@]2(C)CCC[C@@H](Nc3ncc(Cl)c(-c4c[nH]c5ccccc45)n3)C2)c(F)c1` [Compound 157] returned an IC50 of 100 to 1000 nM.

As to `CN(C)C/C=C/C(=O)Nc1ccc(C(=O)N[C@H]2CCC[C@@](C)(Nc3ncc(Cl)c(-c4c[nH]c5ccccc45)n3)C2)cc1` [Compound 159], the IC50 is > 1000 nM.

`CN(C)C/C=C/C(=O)Nc1ccc(C(=O)N[C@@]2(C)CCC[C@@H](Nc3ncc(Cl)c(-c4c[nH]c5ccccc45)n3)C2)cc1F` [compound 158]: the IC50 is < 100 nM.
